Test results from patent US20240043504A1.

Target: SARS-CoV-2 Spike Protein (RBD)(R319-F541).mmH (SARS-CoV-2)
Assay: Luminex, supernatant
Conditions: remark: other sources report otherwise

| Binder | MFI |
| --- | --- |
| mAb10915 (antibody) heavy: EVQLVESGGGLVQPGGSLRLSCAASGFTVSSNYMNWVRQAPGKGLEWVSVIYSGGSTFYADSVKGRFTISRHNSKNTLYLQMNSLRPEDTAVYYCARDLGGYFDYWGQGTLVTVSS[human IgG1 constant region left out] light: [about 100 residues left out][about 120 residues left out] | 31800 MFI and 30300 MFI |
| mAb10939 (antibody) heavy: EVQLVESGGGLVQPGGSLRLSCAASGLTVSSNYMNWVRQVPGKGLEWVSVIYSGGSKFYVDSVKGRFTISRHNSKNTLYLQMNSLRPEDTAVYYCTRDAQYYGMDVWGQGTTVTVSS[human IgG1 constant region left out] light: DIQMTQSPSSLSASVGDRVTITCRASQSISTYLHWYQQKPGEAPKLLIYAASSLQSGVPSRFSGSGSGTDFTLTISSLQPEDFATYYCQQSYSTPPEIFGQGTKLEIKRTVAAPSVFIFPPSDEQLKSGTASVVCLLNNFYPREAKVQWKVDNALQSGNSQESVTEQDSKDSTYSLSSTLTLSKADYEKHKVYACEVTHQGLSSPVTKSFNRGEC | 32200 MFI and 30900 MFI |
| mAb10982 (antibody) heavy: EVQLVESGGGLVQPGGSLRLSCAASGLTVSSNYMSWVRQAPGKGLEWVSVIYSGGTTYYADSVKGRFTISRHNSKNTLSLQMNSLRAEDTAVYYCARGEGANYYGMDVWGQGTTVTVSS[human IgG1 constant region left out] light: QSVLTQPPSVSGAPGQRVTISCTGSSSNIGTGYDVHWYQQLPGTAPKLLIYGNSNRPSGVPDRFSGSKSGTSASLAITGLQAEDEADYYCQSYDSSLSGYVVFGGGTKLTVLGQPKAAPSVTLFPPSSEELQANKATLVCLISDFYPGAVTVAWKADSSPVKAGVETTTPSKQSNNKYAASSYLSLTPEQWKSHRSYSCQVTHEGSTVEKTVAPTECS | 24300 MFI and 22200 MFI |
| mAb10984 (antibody) heavy: EVQLVESGGGLVQPGGSLRLSCAASGLTVNRNYMSWVRQAPGKGLEWVSLIYSGGSTYYADSVKGRFTISRDNSKNTLYLQMNSLRLEDTAVYYCARGELGIPYGMDVWGQGTTVTVSS[human IgG1 constant region left out] light: QSVLTQPPSVSAAPGQKVTISCSGSSSNIGNNYVSWYQQLPGTAPKLLIYDNNKRPSGIPDRFSGSKSGTSATLGITGLQTGDEADYYCGTWDSSLSAGVFGGGTKLTVLGQPKAAPSVTLFPPSSEELQANKATLVCLISDFYPGAVTVAWKADSSPVKAGVETTTPSKQSNNKYAASSYLSLTPEQWKSHRSYSCQVTHEGSTVEKTVAPTECS | 27900 MFI and 26200 MFI |
| mAb10985 (antibody) heavy: EVQLVESGGGLVQPGRSLRLSCAASGFTFDDYAMHWVRQAPGKGLEWVSGISWNRGSIGYADSVKGRFTISRDNAKNSLYLQMSSLRAEDTALYYCAKDGERWDSVVVPSARNGMDVWGQGTTVTVSS[human IgG1 constant region left out] light: QSVLTQPPSVSGAPGQRVTISCTGSSSNIGAGYDVHWYQQLPGTAPKLLIYGNSNRPSGVPDRFSGSKSGTSASLAITGLQAEDEADYYCQSYDSSLSGSYVFGTGTKVTVLGQPKAAPSVTLFPPSSEELQANKATLVCLISDFYPGAVTVAWKADSSPVKAGVETTTPSKQSNNKYAASSYLSLTPEQWKSHRSYSCQVTHEGSTVEKTVAPTECS | 30200 MFI and 27900 MFI |
| mAb10989 (antibody) heavy: QVQLVQSGAEVKKPGASVKVSCKASGYIFTGYYMHWVRQAPGQGLEWMGWINPNSGGANYAQKFQGRVTLTRDTSITTVYMELSRLRFDDTAVYYCARGSRYDWNQNNWFDPWGQGTLVTVSS[human IgG1 constant region left out] light: QSALTQPASVSGSPGQSITISCTGTSSDVGTYNYVSWYQQHPGKAPKLMIFDVSNRPSGVSDRFSGSKSGNTASLTISGLQAEDEADYYCSSFTTSSTVVFGGGTKLTVLGQPKAAPSVTLFPPSSEELQANKATLVCLISDFYPGAVTVAWKADSSPVKAGVETTTPSKQSNNKYAASSYLSLTPEQWKSHRSYSCQVTHEGSTVEKTVAPTECS | 17700 MFI and 17300 MFI |
| mAb10971 (antibody) heavy: EVQLVESGGGLIQPGGSLRLSCAASGVTVSSNYMSWVRQAPGKGLEWVSVIYSGGSTFYSDSVKGRFSISRDNSKNTLYLQMNSLRAEDTAVYYCARDLYYYGMDVWGQGTTVTVSS[human IgG1 constant region left out] light: DIQLTQSPSFLSASVGDRVTITCRASQGISTYLAWYQQKPGKAPKLLIYAASTLQSGVPSRFSGSGSGTEFTLTISSLQPEDFATYYCQQLDSYPGLTFGGGTKVEIKRTVAAPSVFIFPPSDEQLKSGTASVVCLLNNFYPREAKVQWKVDNALQSGNSQESVTEQDSKDSTYSLSSTLTLSKADYEKHKVYACEVTHQGLSSPVTKSFNRGEC | 29400 MFI and 28800 MFI |
| mAb10965 (antibody) heavy: EVQLVESGGGLIQPGGSLRLSCAASVFTVSYNYMSWVRQAPGKGLEWVSVIYSGGSTYYADSVKGRFTISRDNSKNTLYLQMNSLRAEDTAVYYCARALPGWGGSFEYFDYWGQGTLVTVSS[human IgG1 constant region left out] light: [about 100 residues left out][about 100 residues left out] | 30800 MFI and 26900 MFI |

“And” between values parts separate entries of the source, which are not always exact repeats. Equal entries are not always repeated.
